Source: the supplement of paper PMC7238544
Counter-ions that a name gives are not always drawn. ± gives the standard deviation of the averaged measurements. The list shows a part of the results. Where a SMILES comes first, the peptide text is derived from it.

Assays:
Details in all cases: priming compound concentration 100 µM
hAMSC donor 1 [1] = assay: Hoechst total cell count ratio vs vehicle control; higher = more cells (less toxicity)
hAMSC donor 2 [2] = assay: as above
hAMSC donor 1 [3] = assay: transgenic luciferase activity (RLU/mg protein) fold change vs vehicle control (ratio); higher = more transgene expression
hAMSC donor 2 [4] = assay: as above
hAMSC donor 1 [5] = assay: transfection efficiency (EGFP+ cells / Hoechst count) fold change vs vehicle control (ratio); hAMSC are human adipose-derived mesenchymal stem cells given an EGFP-luciferase plasmid by lipofection; higher = enhanced transfection
hAMSC donor 2 [6] = assay: as above
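Wherever Hoechst total cell count ratio vs vehicle control is given: compound added 30 min before Lipofectamine 3000 lipoplex delivery, triplicate-well means expressed against DMSO vehicle control wells of the same 96-well plate.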
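Wherever transfection efficiency (EGFP+ cells / Hoechst count) fold change vs vehicle control is given: compounds added 30 min before Lipofectamine 3000 lipoplex transfection, triplicate means relative to DMSO vehicle wells on the same plate, luciferase RLU normalized to BCA total protein.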
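Wherever transgenic luciferase activity (RLU/mg protein) fold change vs vehicle control is given: compounds in DMSO added 30 min before Lipofectamine 3000 transfection of pEGFP-Luc in 96-well plates, values are means of triplicate wells over DMSO vehicle wells on the same plate.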

| SMILES | Hoechst total cell count ratio (hAMSC donor 1 [1]) | Hoechst total cell count ratio (hAMSC donor 2 [2]) | transgenic luciferase activity (hAMSC donor 1 [3]) | transgenic luciferase activity (hAMSC donor 2 [4]) | transfection efficiency (hAMSC donor 1 [5]) | transfection efficiency (hAMSC donor 2 [6]) |
| --- | --- | --- | --- | --- | --- | --- |
| O=C(O)c1cc(/N=N/c2ccc(S(=O)(=O)Nc3ccccn3)cc2)ccc1O [Sulfasalazine] | 1.57 ± 0.039 | 1.2 ± 0.23 | 1.48 ± 0.78 | 0.237 ± 0.036 | 0.657 ± 0.13 | 1 ± 0.081 |
| CCCN(CCC)S(=O)(=O)c1ccc(C(=O)O)cc1 [Probenecid] | 1.03 ± 0.073 | 1.38 ± 0.18 | 0.37 ± 0.25 | 1.05 ± 0.12 | 1.23 ± 0.44 | 0.817 ± 0.14 |
| Cn1cnc([N+](=O)[O-])c1Sc1ncnc2[nH]cnc12 [Azathioprine] | 0.789 ± 0.065 | 1.38 ± 0.3 | 0.892 ± 0.18 | 1.49 ± 0.6 | 2.01 ± 0.46 | 0.944 ± 0.21 |
| COc1ccc2cc([C@H](C)C(=O)O)ccc2c1 [Naproxen sodium] | 1.47 ± 0.17 | 0.834 ± 0.12 | 1.34 ± 0.32 | 0.371 ± 0.071 | 0.623 ± 0.052 | 1 ± 0.21 |
| O=C1CC[C@@H](C(=O)N2CSC[C@H]2C(=O)O)N1 [Pidotimod] (HELM PEPTIDE1{[Glp].[O=C(O)[C@@H]1CSCN1[*:1]]}$$$$V2.0) | 1.37 ± 0.21 | 1.19 ± 0.015 | 1.5 ± 0.17 | 1.12 ± 0.075 | 1.24 ± 0.41 | 0.853 ± 0.25 |
| COc1ccccc1N1CCN(CCCNc2cc(=O)n(C)c(=O)n2C)CC1 [Urapidil hydrochloride] | 1.19 ± 0.22 | 1.13 ± 0.014 | 0.234 ± 0.033 | 0.93 ± 0.23 | 1.06 ± 0.52 | 1.07 ± 0.14 |
| O=C1N(c2ccccc2)c2ccccc2C1(Cc1ccncc1)Cc1ccncc1 [Linopirdine dihydrochloride] | 1.05 ± 0.24 | 0.907 ± 0.053 | 0.58 ± 0.048 | 0.648 ± 0.092 | 0.958 ± 0.23 | 1.17 ± 0.082 |
| CNCCC(Oc1ccc(C(F)(F)F)cc1)c1ccccc1 (configuration not stated) [Fluoxetine hydrochloride] | 0.0733 ± 0.021 | 0.0593 ± 0.017 | 0.00187 ± 0.00021 | 0.000699 ± 0.00012 | 0.596 ± 0.71 | 0.384 ± 0.37 |
| CC1(C)O[C@@H]2C[C@H]3[C@@H]4C[C@H](F)C5=CC(=O)C=C[C@]5(C)[C@@]4(F)[C@@H](O)C[C@]3(C)[C@]2(C(=O)CO)O1 [Fluocinolone acetonide] | 0.959 ± 0.064 | 1.08 ± 0.11 | 7.86 ± 4.2 | 2.96 ± 0.24 | 2.75 ± 0.91 | 2.52 ± 0.56 |
| Nc1ncn([C@@H]2O[C@H](CO)[C@@H](O)[C@H]2O)c(=O)n1 [5-Azacytidine] | 1.08 ± 0.1 | 0.862 ± 0.061 | 1.44 ± 0.5 | 1.05 ± 0.18 | 0.68 ± 0.054 | 1.52 ± 0.35 |
| CCN(CC)CC(=O)Nc1c(C)cccc1C [Lidocaine] | 1.05 ± 0.1 | 1.25 ± 0.14 | 0.72 ± 0.37 | 0.551 ± 0.1 | 0.745 ± 0.1 | 0.839 ± 0.15 |
| COc1cc(C)c(Cc2cnc(N)nc2N)cc1OC [Ormetoprim] | 1.07 ± 0.046 | 1.24 ± 0.3 | 0.907 ± 0.49 | 0.37 ± 0.079 | 1.34 ± 0.42 | 1.29 ± 0.43 |
